Results on 102 sequences are retold here after a collection of fitness landscapes (doi:10.1038/s41467-024-54723-y).

Over roughly 18,000 sequences, “TetR repression strength (sort-seq, GFP reporter)” has its median near 0.23; the highest 2% begin near 0.68. Some of the results follow.

The assay concerns the target TetR (class B, Tn10) (UniProt P04483). Nature of the assay: TetR repression strength (sort-seq, GFP reporter) (relative to tetO2 = 1); higher = stronger repression. The following applies: E. coli. A digest of the protocol: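 Repression strength was calculated by subtracting the read-weighted mean bin from the top bin index plus one and dividing by the unaltered operator's value. The plasmid library was low-copy in E. coli SIG10-MAX, with eight randomized operator positions between a constitutive promoter and sfGFP and constitutive TetR. Cultures grew 5 h at 37 °C in LB containing 50 µg/mL chloramphenicol before 10^6 cells were sorted by FACS into 13 fluorescence bins, each sequenced on Illumina. Three independent transformations were averaged for members having ≥30 reads in all replicates and a CV ≤0.5.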
Chain of UniProt P04483 (P04483 whole entry): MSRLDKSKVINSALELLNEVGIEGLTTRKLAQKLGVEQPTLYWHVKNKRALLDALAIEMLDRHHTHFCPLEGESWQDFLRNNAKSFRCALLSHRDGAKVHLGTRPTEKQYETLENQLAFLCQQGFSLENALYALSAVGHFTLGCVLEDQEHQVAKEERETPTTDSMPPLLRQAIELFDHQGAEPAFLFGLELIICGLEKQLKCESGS
TCCCGTGGAGTTTCTGAGA: the TetR repression strength is 0.0476.

In the case of TCCCAGCAAGTTGGCGAGA, the TetR repression strength worked out at 0.0163. TCCCCGGGAGTCAGTGAGA came in with a TetR repression strength of 0.182.

As to TCCCATAGAGTAGACGAGA, the TetR repression strength is 0.309.

TCCCCGGGAGTCCGCGAGA came in with a TetR repression strength of 0.288. TCCCTACGAGTGTGAGAGA registered a TetR repression strength of 0.147.

TCCCCATCAGTTACAGAGA had a TetR repression strength of 0.281. Then TCCCGCATAGTGCCTGAGA, with 0.0957; and TCCCATCTAGTAAGCGAGA, with 0.394. The sequence TCCCCCATAGTTATTGAGA showed a TetR repression strength of 0.415. TCCCTGCAAGTGAGTGAGA: the TetR repression strength was 0.189.

TCCCTATTAGTCGCTGAGA yielded a TetR repression strength of 0.304. As to TCCCCCAGAGTGAGTGAGA, the TetR repression strength came to 0.152. Turning to TCCCTCGAAGTGAAGGAGA, the TetR repression strength is 0.146. For the sequence TCCCAGTAAGTTGCTGAGA, the TetR repression strength came out at 0.0906. For TCCCTTGGAGTCATTGAGA, the TetR repression strength was 0.207. With TCCCGCACAGTCGCGGAGA, the TetR repression strength stood at 0.193. TCCCCCTAAGTAGTTGAGA registered a TetR repression strength of 0.299. TCCCCGTCAGTTGTGGAGA: the TetR repression strength is 0.023. Turning to TCCCATCGAGTTTCCGAGA, the TetR repression strength worked out at 0.273.

Regarding TCCCTGTCAGTGGCAGAGA, the TetR repression strength amounted to 0.545.

Sequence TCCCGGGTAGTTTATGAGA gave a TetR repression strength of 0.262. The value for TCCCCGGGAGTGTTGGAGA was 0.193. With TCCCTTATAGTGGAGGAGA, the TetR repression strength came out at 0.0898. As for TCCCTCTCAGTGCCAGAGA, the TetR repression strength was 0.585. As for TCCCCGGGAGTCTGCGAGA, the TetR repression strength is 0.385. The sequence TCCCCTAGAGTAACGGAGA displayed a TetR repression strength of 0.169. The value for TCCCAATGAGTGTGGGAGA was 0.244; that for TCCCCACTAGTAACAGAGA was 0.311; that for TCCCAGTCAGTTGATGAGA was 0.454.

TCCCGTGGAGTAAACGAGA: the TetR repression strength is 0.387. TCCCAGAGAGTAGCCGAGA yielded a TetR repression strength of 0.386. In the case of TCCCCACTAGTATAGGAGA, the TetR repression strength is 0.207. The sequence TCCCAACTAGTTATAGAGA came in with a TetR repression strength of 0.346.

Regarding TCCCTCCCAGTGAAAGAGA, the TetR repression strength is 0.588.

TCCCTGATAGTATAGGAGA: the TetR repression strength stood at 0.258. As to TCCCATTGAGTGACAGAGA, the TetR repression strength came to 0.582.

The sequence TCCCGATAAGTCGTGGAGA registered a TetR repression strength of 0.0145. As to TCCCGTGCAGTGGCAGAGA, the TetR repression strength was determined as 0.324. In turn, TCCCAAACAGTCCAGGAGA had a TetR repression strength of 0.00506. Then TCCCAAGTAGTATCGGAGA, with 0.405; and TCCCGTGGAGTAAGGGAGA, with 0.43. Then TCCCGATTAGTGCGGGAGA, with 0.00518.

On to TCCCGTCTAGTGGGAGAGA, for which the TetR repression strength was found to be 0.503. Sequence TCCCTAAAAGTCCGGGAGA showed a TetR repression strength of 0.388.

Consider TCCCACTCAGTATAGGAGA, for which the TetR repression strength is 0.195. Regarding TCCCGTAAAGTCAGTGAGA, the TetR repression strength stood at 0.074. Then TCCCGCAGAGTACCAGAGA, with 0.321; and TCCCGCGCAGTCGTGGAGA, with 0.33; and TCCCATTAAGTAGAGGAGA, with 0.335. Take TCCCTTCCAGTGAGAGAGA: the TetR repression strength is 0.276.

On to TCCCGGCTAGTGGAGGAGA, for which the TetR repression strength came to 0.292. In turn, TCCCCACAAGTGAAAGAGA yielded a TetR repression strength of 0.32. On to TCCCGGCTAGTAGACGAGA, for which the TetR repression strength is 0. On to TCCCGGGGAGTGCGGGAGA, for which the TetR repression strength was found to be 0.178. For TCCCTAACAGTTACAGAGA, the TetR repression strength stood at 0.203.

Sequence TCCCAGACAGTAGCCGAGA registered a TetR repression strength of 0.104. Then TCCCGTCCAGTAGAGGAGA, with 0.255; and TCCCCGCAAGTGTGGGAGA, with 0.342; and TCCCCGTTAGTTGTGGAGA, with 0.327. TCCCGGGGAGTTGTAGAGA: the TetR repression strength was determined as 0.4. In turn, TCCCCCCAAGTGGCCGAGA returned a TetR repression strength of 0.244.

For the sequence TCCCCCCTAGTGTGGGAGA, the TetR repression strength amounted to 0.336.

On to TCCCCCGCAGTGCCTGAGA, for which the TetR repression strength came out at 0.231.

Sequence TCCCGAGCAGTGGGCGAGA had a TetR repression strength of 0.155. Take TCCCCGCTAGTCAATGAGA: the TetR repression strength was 0.424. TCCCGAATAGTATACGAGA returned a TetR repression strength of 0.136.

TCCCGTGTAGTACCGGAGA yielded a TetR repression strength of 0.159. Take TCCCAATAAGTGAGGGAGA: the TetR repression strength is 0.148.

In turn, TCCCAAGTAGTTTAGGAGA came in with a TetR repression strength of 0.174. Sequence TCCCTCTGAGTCGCGGAGA showed a TetR repression strength of 0.205.

As for TCCCTGTCAGTCTCGGAGA, the TetR repression strength is 0.249.

TCCCAAATAGTAGACGAGA showed a TetR repression strength of 0.373. The sequence TCCCGGGAAGTAGGCGAGA showed a TetR repression strength of 0.849. TCCCGTAGAGTAGGAGAGA: the TetR repression strength stood at 0.36. In turn, TCCCTGTCAGTACGAGAGA yielded a TetR repression strength of 0.215. Take TCCCACTGAGTCACAGAGA: the TetR repression strength is 0.147.

The sequence TCCCTTGTAGTCGTGGAGA displayed a TetR repression strength of 0.0733. For the sequence TCCCGTCGAGTGCCAGAGA, the TetR repression strength stood at 0.311. Regarding TCCCCCAAAGTAAGCGAGA, the TetR repression strength is 0.184. Then TCCCGGCGAGTGTGTGAGA, with 0.224; and TCCCCCAAAGTTCAGGAGA, with 0.225. Then TCCCCCGGAGTGGGGGAGA, with 0.126; and TCCCTATAAGTTGTTGAGA, with 0.191; and TCCCACGGAGTCCGTGAGA, with 0.0963. As to TCCCTAGGAGTACGCGAGA, the TetR repression strength was 0.226. In turn, TCCCCGCGAGTTGAGGAGA came in with a TetR repression strength of 0.213.

With TCCCTGTCAGTGCGCGAGA, the TetR repression strength is 0.227.

TCCCACAGAGTACACGAGA gave a TetR repression strength of 0.171.

As for TCCCAAGGAGTGGGAGAGA, the TetR repression strength was 0.193. For the sequence TCCCGATCAGTTATAGAGA, the TetR repression strength stood at 0.579. Then TCCCGGGCAGTGACAGAGA, with 0.542; and TCCCGTGTAGTAATGGAGA, with 0.238.

TCCCTTGTAGTGCGTGAGA had a TetR repression strength of 0.0963. In turn, TCCCGCCGAGTCTGTGAGA showed a TetR repression strength of 0.192. The value for TCCCATAGAGTGGCGGAGA was 0.267. Consider TCCCATTAAGTTAAGGAGA, for which the TetR repression strength was 0.112. The value for TCCCAGAGAGTAGTGGAGA was 0.147; that for TCCCAAAAAGTAGGGGAGA was 0.195; that for TCCCCATAAGTGTATGAGA was 0.587. On to TCCCGAAGAGTGCATGAGA, for which the TetR repression strength was found to be 0.251.

On to TCCCTGATAGTTTGAGAGA, for which the TetR repression strength amounted to 0.382.
